In the supplement of paper PMC4604168 (melanoma cell lines):
The list shows a part of the results. Most values come without repeats; read them as rough.

How the values were obtained:
Test in all cases: cell count relative to DMSO control; melanoma cells; higher = more viable cells
Conditions in all cases: library dose: low library concentration; 72 h
[1] = system: MZ2-MEL
[2] = system: MeWo
[3] = system: RPMI7951
[4] = system: RVH-421
[5] = system: SkMel28
[6] = system: SkMel2
[7] = system: SkMel30
[8] = system: SkMel5
[9] = system: UACC257
[10] = system: UACC62
[11] = system: WM115
[12] = system: WM1716
[13] = system: WM1745
[14] = system: WM3526
[15] = system: WM3619
[16] = system: WM451Lu
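Note: cell number obtained by counting DAPI-stained nuclei in high-throughput microscope images with image analysis software, screen run in 1,536-well plates.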

| Compound | cell count [1] [%] | cell count [2] [%] | cell count [3] [%] | cell count [4] [%] | cell count [5] [%] | cell count [6] [%] | cell count [7] [%] | cell count [8] [%] | cell count [9] [%] | cell count [10] [%] | cell count [11] [%] | cell count [12] [%] | cell count [13] [%] | cell count [14] [%] | cell count [15] [%] | cell count [16] [%] |
| --- | --- | --- | --- | --- | --- | --- | --- | --- | --- | --- | --- | --- | --- | --- | --- | --- |
| CN1CCN(c2ccc3nc(-c4c(N)c5c(F)cccc5[nH]c4=O)[nH]c3c2)CC1 [Dovitinib] + COc1cc2ncnc(Nc3ccc(Oc4ccccc4)cc3)c2cc1OC [SrcI1] (first compound 0.1 µM, partner dose 2 µM) | 95 | 89.6 | 117 | 112 | 102 | 112 | 103 | 87.2 | 115 | 102 | 100 | 129 | 94.4 | 98.7 | 128 | 101 |
| CNC(=O)c1cc(Oc2ccc(NC(=O)Nc3ccc(Cl)c(C(F)(F)F)c3)cc2)ccn1 [sorafenib] + CN(NC(=O)CC(=O)NN(C)C(=S)c1ccccc1)C(=S)c1ccccc1 [STA4783] (first compound 0.4 µM, partner dose 0.006 µM) | 110 | 89.9 | 95.5 | 88 | 88.2 | 100 | 111 | 90.3 | 91.9 | 97.7 | 82.4 | 60.2 | 21.1 | 88.1 | 44.5 | 79.3 |
| CNC(=O)c1cc(Oc2ccc(NC(=O)Nc3ccc(Cl)c(C(F)(F)F)c3)cc2)ccn1 [sorafenib] + COc1ccc(COc2ccc(Cc3cnc(N)nc3N)cc2OC)cc1 [GW2580] (first compound 0.4 µM, partner dose 1 µM) | 82.3 | 108 | 98.7 | 97.2 | 87.8 | 111 | 104 | 80 | 84 | 96.3 | 99.9 | 99.7 | 99.6 | 104 | 96.1 | 120 |
| CNC(=O)c1cc(Oc2ccc(NC(=O)Nc3ccc(Cl)c(C(F)(F)F)c3)cc2)ccn1 [sorafenib] + Oc1cc(-c2nc(-c3ccccc3)[nH]c2-c2ccncc2)ccc1Cl [L779450] (first compound 0.4 µM, partner dose 0.2 µM) | 95.7 | 82.5 | 97.9 | 82.2 | 76.2 | 97.7 | 94 | 95.7 | 90.3 | 64 | 80.7 | 96.1 | 79.3 | 71.7 | 87.2 | 97.6 |
| C[C@@H](Oc1cc(-c2cnn(C3CCNCC3)c2)cnc1N)c1c(Cl)ccc(F)c1Cl [Crizotinib] + O=S(=O)(c1ccccc1)N(CC(F)(F)F)c1ccc(C(O)(C(F)(F)F)C(F)(F)F)cc1 [T0901317] (first compound 0.2 µM, partner dose 1.4 µM) | 93.7 | 90 | 105 | 75.5 | 81.4 | 89 | 84.8 | 74.1 | 75 | 89.7 | 91.3 | 97 | 87.4 | 87.7 | 89.8 | 95.3 |
| C=CCNC1=C2C[C@@H](C)C[C@H](OC)[C@H](O)[C@@H](C)/C=C(\C)[C@H](OC(N)=O)[C@@H](OC)/C=C\C=C(/C)C(=O)NC(=CC1=O)C2=O [Tanespimycin] + CC(C)CCN1c2nc(Nc3cc(F)c(O)c(F)c3)ncc2N(C)C(=O)C1C [BID1870] (first compound 0.002 µM, partner dose 0.2 µM) | 110 | 85.9 | 108 | 115 | 84.6 | 104 | 82.3 | 90.7 | 102 | 80.9 | 97.7 | 67.9 | 95.6 | 82.6 | 76.3 | 95.1 |
| CNC(=O)c1cc(Oc2ccc(NC(=O)Nc3ccc(Cl)c(C(F)(F)F)c3)cc2)ccn1 [sorafenib] + COc1cc2c(Oc3ccc4[nH]c(C)cc4c3F)ncnc2cc1OCCCN1CCCC1 [cediranib] (first compound 0.4 µM, partner dose 0.4 µM) | 93.1 | 104 | 95.6 | 99.9 | 89.7 | 98.4 | 91 | 86.4 | 76.7 | 96.7 | 94.9 | 110 | 95.3 | 89.2 | 105 | 91.5 |
| C=CCNC1=C2C[C@@H](C)C[C@H](OC)[C@H](O)[C@@H](C)/C=C(\C)[C@H](OC(N)=O)[C@@H](OC)/C=C\C=C(/C)C(=O)NC(=CC1=O)C2=O [Tanespimycin] + COc1ccc2c(c1)CCC1C2CCC2(C)C(NCCCCCCN3C(=O)C=CC3=O)CCC12 [U73122] (first compound 0.002 µM, partner dose 0.4 µM) | 97 | 97.9 | 80.4 | 112 | 95.5 | 92.8 | 94.9 | 92.7 | 103 | 95.2 | 89.9 | 95 | 92.3 | 96.5 | 99.3 | 84 |
| C=CCNC1=C2C[C@@H](C)C[C@H](OC)[C@H](O)[C@@H](C)/C=C(\C)[C@H](OC(N)=O)[C@@H](OC)/C=C\C=C(/C)C(=O)NC(=CC1=O)C2=O [Tanespimycin] + COc1cc2ncnc(Nc3ccc(Oc4ccccc4)cc3)c2cc1OC [SrcI1] (first compound 0.002 µM, partner dose 2 µM) | 98.1 | 88.3 | 105 | 103 | 99.8 | 92.9 | 103 | 107 | 120 | 112 | 98.4 | 105 | 85 | 88.2 | 95 | 141 |
| CNC(=O)c1cc(Oc2ccc(NC(=O)Nc3ccc(Cl)c(C(F)(F)F)c3)cc2)ccn1 [sorafenib] + COc1cc(N2CCC(N3CCN(C)CC3)CC2)ccc1Nc1ncc(Cl)c(Nc2ccccc2S(=O)(=O)C(C)C)n1 [NVP-TAE684] (first compound 0.4 µM, partner dose 0.08 µM) | 90.3 | 85.6 | 92.2 | 107 | 93 | 96.7 | 64.2 | 91 | 87.5 | 94.4 | 94.9 | 104 | 88.6 | 63.9 | 88.4 | 115 |
| CN1CCN(c2ccc3nc(-c4c(N)c5c(F)cccc5[nH]c4=O)[nH]c3c2)CC1 [Dovitinib] + CCc1ccc(CCOc2ccc(CC3SC(=O)NC3=O)cc2)nc1 [pioglitazone] (first compound 0.1 µM, partner dose 2 µM) | 101 | 82.8 | 115 | 121 | 90.2 | 117 | 102 | 84.2 | 73.1 | 95.9 | 108 | 91.1 | 80.5 | 89.2 | 133 | 95.9 |
| C[C@@H](Oc1cc(-c2cnn(C3CCNCC3)c2)cnc1N)c1c(Cl)ccc(F)c1Cl [Crizotinib] + COC(=O)c1sccc1S(=O)(=O)Nc1ccc(Nc2ccccc2)cc1OC [GSK0660] (first compound 0.2 µM, partner dose 1 µM) | 92.7 | 102 | 111 | 97.4 | 80.8 | 88.4 | 77.3 | 104 | 104 | 81.9 | 102 | 78.6 | 99.2 | 88.6 | 107 | 77.7 |
| CNC(=O)c1cc(Oc2ccc(NC(=O)Nc3ccc(Cl)c(C(F)(F)F)c3)cc2)ccn1 [sorafenib] + O=C(Nc1cccc(Cl)c1)Nc1ncc(CCNc2ncnc3ccsc23)s1 [SNS314] (first compound 0.4 µM, partner dose 0.0008 µM) | 93.4 | 91.1 | 97.9 | 79.6 | 88.7 | 98.9 | 104 | 87.2 | 77.2 | 91.2 | 66.7 | 89.6 | 89.9 | 99 | 97.7 | 90.7 |
| CN1CCN(c2ccc3nc(-c4c(N)c5c(F)cccc5[nH]c4=O)[nH]c3c2)CC1 [Dovitinib] + CC(C)(C)c1cnc(CSc2cnc(NC(=O)C3CCNCC3)s2)o1 [SNS-032] (first compound 0.1 µM, partner dose 0.01 µM) | 88.2 | 95.5 | 100 | 102 | 108 | 97.4 | 82.8 | 95.1 | 109 | 83.7 | 96.1 | 99.8 | 77.2 | 85.8 | 99.6 | 90.7 |
| CNC(=O)c1cc(Oc2ccc(NC(=O)Nc3ccc(Cl)c(C(F)(F)F)c3)cc2)ccn1 [sorafenib] + O=S(=O)(c1ccccc1)N(CC(F)(F)F)c1ccc(C(O)(C(F)(F)F)C(F)(F)F)cc1 [T0901317] (first compound 0.4 µM, partner dose 1.4 µM) | 99.4 | 106 | 123 | 94.8 | 98.2 | 106 | 116 | 97.8 | 66.8 | 93.3 | 102 | 96 | 101 | 84.9 | 136 | 90.1 |
| CS(=O)(=O)CCNCc1ccc(-c2ccc3ncnc(Nc4ccc(OCc5cccc(F)c5)c(Cl)c4)c3c2)o1 [lapatinib] + Cc1ccc(NC(=O)c2cccc(N(C)C)c2)cc1NC(=O)c1ccc(O)cc1 [ZM336372] (first compound 0.8 µM, partner dose 2 µM) | 73.5 | 92.9 | 74.5 | 99.2 | 89.1 | 99.5 | 74.4 | 91.9 | 89 | 85.8 | 88.9 | 95.8 | 89.2 | 100 | 92.3 | 103 |
| CS(=O)(=O)CCNCc1ccc(-c2ccc3ncnc(Nc4ccc(OCc5cccc(F)c5)c(Cl)c4)c3c2)o1 [lapatinib] + CO[C@@H]1[C@H](N(C)C(=O)c2ccccc2)C[C@H]2O[C@]1(C)n1c3ccccc3c3c4c(c5c6ccccc6n2c5c31)C(=O)NC4 [Midostaurin] (first compound 0.8 µM, partner dose 0.08 µM) | 91.6 | 76.6 | 85.5 | 76.8 | 82.9 | 82.1 | 87.6 | 78.8 | 78.7 | 81.7 | 70.8 | 67.6 | 48 | 101 | 99.9 | 116 |
| C=CCNC1=C2C[C@@H](C)C[C@H](OC)[C@H](O)[C@@H](C)/C=C(\C)[C@H](OC(N)=O)[C@@H](OC)/C=C\C=C(/C)C(=O)NC(=CC1=O)C2=O [Tanespimycin] + COc1ccc(COc2ccc(Cc3cnc(N)nc3N)cc2OC)cc1 [GW2580] (first compound 0.002 µM, partner dose 1 µM) | 94.9 | 97.2 | 106 | 101 | 84.3 | 108 | 99.3 | 95.8 | 61.9 | 89.7 | 98.9 | 111 | 104 | 115 | 104 | 103 |
